From patent publication US11178870B2 (priority 2017, dated 2021)

Experiments:
Magnaporthe grisea = type: in vivo; settings: class of control value, Table 7
Phytophthora infestans = type: in vivo; settings: class of control value, Table 7
[1] = system: Colletotrichum orbiculare; settings: 250 ppm spray, 2.5 ml/pot; investigated 6 to 10 days after inoculation

| Structure (SMILES) | Test A control value (blast on rice) (Magnaporthe grisea) | Test F control value (late blight on tomato) (Phytophthora infestans) | Test H control value (anthracnose on cucumber) [1] |
| --- | --- | --- | --- |
| Cn1c(-c2c(F)cccc2Cl)c(-n2cc(F)cn2)cc(Cl)c1=O [Compound 509] | L (L shows the control value of 50% or less) | L (L shows the control value of 50% or less) | H (H shows the control value more than 50%) |
| CCn1c(-c2c(F)cccc2F)c(-c2sccc2Cl)cc(Br)c1=O [Compound 397] | H (H shows the control value more than 50%) | L (L shows the control value of 50% or less) | H (H shows the control value more than 50%) |
| Cc1ccsc1C1=C(c2c(F)cccc2F)N(C)C(=O)CC1 [Compound 457] | L (L shows the control value of 50% or less) | L (L shows the control value of 50% or less) | H (H shows the control value more than 50%) |
| Cc1sccc1-c1cc(Cl)c(=O)n(CC(F)F)c1-c1c(F)cccc1F [Compound 480] | L (L shows the control value of 50% or less) | L (L shows the control value of 50% or less) | L (L shows the control value of 50% or less) |
| CCn1c(-c2ccc(N3CCCC3)cc2F)c(-n2ncc(C)c2Cl)cc(Br)c1=O [Compound 466] | H (H shows the control value more than 50%) | L (L shows the control value of 50% or less) | L (L shows the control value of 50% or less) |
| CCn1c(-c2ccc(OC)cc2Cl)c(-c2ccsc2Cl)ccc1=O [Compound 497] | H (H shows the control value more than 50%) | L (L shows the control value of 50% or less) | H (H shows the control value more than 50%) |
| Cn1c(-c2c(F)cccc2F)c(-n2cc(F)cn2)cc(Br)c1=O [Compound 462] | H (H shows the control value more than 50%) | L (L shows the control value of 50% or less) | H (H shows the control value more than 50%) |
